From PMC5612953, “Stable MOB1 interaction with Hippo/MST is not essential for development and tissue growth control” (Nature Communications, 2017)
No constants are given. Whether binding was seen depends on the method and setting. For some assays here: Binding seen in cells or lysates may run through a third protein. Some results given as binding are weak or reduced against the parent protein; the word gives no strength. For some assays here: Where a sequence is shown, tags or fusion partners need not be part of it.

Sequences of proteins named here, by UniProt entry; tags and fusion partners are left off. Residues count along the entry.
UniProt Q9NBK5: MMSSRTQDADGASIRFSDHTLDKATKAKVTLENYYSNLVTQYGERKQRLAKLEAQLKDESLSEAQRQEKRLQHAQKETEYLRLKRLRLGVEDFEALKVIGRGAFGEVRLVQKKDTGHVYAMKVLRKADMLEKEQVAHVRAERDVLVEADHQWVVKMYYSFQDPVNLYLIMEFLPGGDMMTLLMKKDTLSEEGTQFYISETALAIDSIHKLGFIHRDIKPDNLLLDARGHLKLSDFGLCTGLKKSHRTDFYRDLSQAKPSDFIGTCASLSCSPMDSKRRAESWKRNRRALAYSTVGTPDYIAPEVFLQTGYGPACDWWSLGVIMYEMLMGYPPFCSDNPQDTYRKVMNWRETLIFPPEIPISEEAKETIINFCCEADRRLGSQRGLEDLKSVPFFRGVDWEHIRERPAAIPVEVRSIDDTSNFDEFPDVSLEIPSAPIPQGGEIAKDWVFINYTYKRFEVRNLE
UniProt Q9Y2H1, residues 25-88: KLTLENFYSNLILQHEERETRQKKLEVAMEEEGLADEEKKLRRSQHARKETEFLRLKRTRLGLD

T1: full-length HA-Hpo(wt) (Drosophila) (UniProt Q8T0S6)
T1 sequence: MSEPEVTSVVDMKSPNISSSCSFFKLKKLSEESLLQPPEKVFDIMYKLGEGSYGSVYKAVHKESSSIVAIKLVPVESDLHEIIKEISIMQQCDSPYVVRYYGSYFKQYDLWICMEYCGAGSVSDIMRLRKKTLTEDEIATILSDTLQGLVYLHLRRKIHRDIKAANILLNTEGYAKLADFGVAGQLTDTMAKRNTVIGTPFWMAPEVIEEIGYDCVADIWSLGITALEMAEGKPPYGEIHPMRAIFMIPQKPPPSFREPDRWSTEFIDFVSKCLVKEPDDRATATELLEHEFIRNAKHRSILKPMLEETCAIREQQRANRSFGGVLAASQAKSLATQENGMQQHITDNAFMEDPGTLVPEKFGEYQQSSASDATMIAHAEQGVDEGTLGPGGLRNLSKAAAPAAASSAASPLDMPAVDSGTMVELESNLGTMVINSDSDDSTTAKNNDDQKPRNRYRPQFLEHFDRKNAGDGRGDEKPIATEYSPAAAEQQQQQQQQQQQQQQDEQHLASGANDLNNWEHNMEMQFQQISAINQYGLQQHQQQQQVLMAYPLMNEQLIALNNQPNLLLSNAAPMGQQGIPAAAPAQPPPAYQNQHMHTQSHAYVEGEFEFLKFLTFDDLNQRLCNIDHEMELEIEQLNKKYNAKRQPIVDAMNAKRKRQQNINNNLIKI

T2: fly HA-tagged Warts (Wts) (Drosophila) (UniProt Q9VA38)
T2 sequence: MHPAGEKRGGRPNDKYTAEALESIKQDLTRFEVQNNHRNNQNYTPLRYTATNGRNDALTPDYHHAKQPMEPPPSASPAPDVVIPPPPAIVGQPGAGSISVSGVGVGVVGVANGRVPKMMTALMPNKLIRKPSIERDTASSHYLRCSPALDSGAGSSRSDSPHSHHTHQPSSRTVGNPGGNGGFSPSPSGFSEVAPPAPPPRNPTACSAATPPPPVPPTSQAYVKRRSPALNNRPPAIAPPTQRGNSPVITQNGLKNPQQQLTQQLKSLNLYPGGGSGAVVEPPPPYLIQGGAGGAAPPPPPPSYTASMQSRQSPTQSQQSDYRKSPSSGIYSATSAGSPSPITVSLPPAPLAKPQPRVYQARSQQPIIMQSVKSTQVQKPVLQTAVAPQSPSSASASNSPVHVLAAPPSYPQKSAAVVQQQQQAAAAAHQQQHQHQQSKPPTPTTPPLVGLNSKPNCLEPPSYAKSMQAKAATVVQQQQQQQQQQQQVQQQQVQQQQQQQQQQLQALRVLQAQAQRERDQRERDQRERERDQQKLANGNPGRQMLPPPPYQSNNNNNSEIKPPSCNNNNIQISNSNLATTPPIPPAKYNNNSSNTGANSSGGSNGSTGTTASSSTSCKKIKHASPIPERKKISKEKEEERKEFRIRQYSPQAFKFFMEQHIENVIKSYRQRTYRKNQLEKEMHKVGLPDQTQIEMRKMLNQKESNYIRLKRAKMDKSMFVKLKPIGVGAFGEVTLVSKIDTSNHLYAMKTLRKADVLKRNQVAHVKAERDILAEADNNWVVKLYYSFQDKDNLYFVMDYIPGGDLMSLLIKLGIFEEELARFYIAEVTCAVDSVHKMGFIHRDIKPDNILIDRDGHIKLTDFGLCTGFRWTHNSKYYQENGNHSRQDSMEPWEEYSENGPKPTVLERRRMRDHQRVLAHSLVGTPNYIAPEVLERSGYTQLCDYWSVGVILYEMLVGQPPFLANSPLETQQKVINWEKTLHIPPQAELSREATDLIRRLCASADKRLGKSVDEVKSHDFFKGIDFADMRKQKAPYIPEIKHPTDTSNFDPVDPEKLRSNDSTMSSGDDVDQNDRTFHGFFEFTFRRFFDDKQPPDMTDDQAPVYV

T3: human MST2 (residues 2-392) (human) (UniProt Q13188)
T3 sequence: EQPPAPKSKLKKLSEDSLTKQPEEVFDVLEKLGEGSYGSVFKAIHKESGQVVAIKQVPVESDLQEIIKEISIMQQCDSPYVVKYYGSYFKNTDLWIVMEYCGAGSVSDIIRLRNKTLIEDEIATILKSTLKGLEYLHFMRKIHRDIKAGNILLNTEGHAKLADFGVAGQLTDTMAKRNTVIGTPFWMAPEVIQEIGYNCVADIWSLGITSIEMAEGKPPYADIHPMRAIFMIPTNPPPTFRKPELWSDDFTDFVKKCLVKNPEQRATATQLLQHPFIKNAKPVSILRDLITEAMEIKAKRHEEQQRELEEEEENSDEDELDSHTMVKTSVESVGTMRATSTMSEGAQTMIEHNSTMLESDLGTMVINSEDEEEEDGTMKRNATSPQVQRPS


Columns and labels:
[1] = molecular target: T1, full-length HA-Hpo(wt) (Drosophila); assay: co-IP; Drosophila S2R+ cells co-expressing myc-MOB1A variants and HA-tagged Wts, Trc or Hpo; IP with anti-HA, blot anti-myc; low-stringency buffer
[2] = molecular target: fly HA-tagged Tricornered (Trc) (Drosophila) (UniProt Q9NBK5); assay: as above
[3] = molecular target: T2, fly HA-tagged Warts (Wts) (Drosophila); assay: as above
[4] = molecular target: human NDR2 (residues 25-88), N-terminal regulatory domain (NTR) (human) (UniProt Q9Y2H1); assay: ITC; 25 °C, ITC200; 25 mM HEPES pH 7.5, 200 mM NaCl, 1 mM EDTA; ~240 μM MOB1A injected (20 x 2 μl) into ~24 μM NDR1, NDR2, LATS1 or LATS2 fragment in the cell; single-site model; both purified
[5] = molecular target: T3, human MST2 (residues 2-392) (human); assay: SEC; purified full-length MOB1 proteins incubated with NDR2 (25-88), LATS1 (618-697) or MST2 (2-392) at 4 °C for 20 min in assembly buffer (20 mM Tris pH 8.0, 200 mM NaCl, 5 mM DTT); HiLoad 16/60 Superdex 200; fractions by SDS-PAGE and Coomassie; for LATS1 MOB1A was first phosphorylated by MST2 (2-308); both purified

binding [1] | binding [2] | binding [3] | binding [5] | Binder | binding [4]
 |  |  | no binding | unphosphorylated full-length MOB1A(K104E/K105E), recombinant (protein, UniProt Q9H8S9 1-216) MSFLFSSRSSKTFKPKKNIPEGSHQYELLKHAEATLGSGNLRQAVMLPEGEDLNEWIAVNTVDFFNQINMLYGTITEFCTEASCPVMSAGPRYEYHWADGTNIEEPIKCSAPKYIDYLMTWVQDQLDDETLFPSKIGVPFPKNFMSVAKTILKRLFRVYAHIYHQHFDSVMQLQEEAHLNTSFKHFIFFVQEFNLIDRRELAPLQELIEKLGSKDR | 
no binding | binds | binds |  | myc-tagged full-length human MOB1A(K104E/K105E) (Drosophila S2R+ cells) (protein, UniProt Q9H8S9 1-216) MSFLFSSRSSKTFKPKKNIPEGSHQYELLKHAEATLGSGNLRQAVMLPEGEDLNEWIAVNTVDFFNQINMLYGTITEFCTEASCPVMSAGPRYEYHWADGTNIEEPIKCSAPKYIDYLMTWVQDQLDDETLFPSKIGVPFPKNFMSVAKTILKRLFRVYAHIYHQHFDSVMQLQEEAHLNTSFKHFIFFVQEFNLIDRRELAPLQELIEKLGSKDR | 
binds |  | binds |  | myc-tagged full-length human MOB1A(E51K) (Drosophila S2R+ cells) (protein, UniProt Q9H8S9 1-216) MSFLFSSRSSKTFKPKKNIPEGSHQYELLKHAEATLGSGNLRQAVMLPEGKDLNEWIAVNTVDFFNQINMLYGTITEFCTEASCPVMSAGPRYEYHWADGTNIKKPIKCSAPKYIDYLMTWVQDQLDDETLFPSKIGVPFPKNFMSVAKTILKRLFRVYAHIYHQHFDSVMQLQEEAHLNTSFKHFIFFVQEFNLIDRRELAPLQELIEKLGSKDR | 

The next lines start with the binder.

Binder | binding [1] | binding [2] | binding [3] | binding [5] | binding [4]
myc-tagged full-length human MOB1A(D63V) (Drosophila S2R+ cells) (protein, UniProt Q9H8S9 1-216) MSFLFSSRSSKTFKPKKNIPEGSHQYELLKHAEATLGSGNLRQAVMLPEGEDLNEWIAVNTVVFFNQINMLYGTITEFCTEASCPVMSAGPRYEYHWADGTNIKKPIKCSAPKYIDYLMTWVQDQLDDETLFPSKIGVPFPKNFMSVAKTILKRLFRVYAHIYHQHFDSVMQLQEEAHLNTSFKHFIFFVQEFNLIDRRELAPLQELIEKLGSKDR | binds | binds | no binding |  | 
myc-tagged full-length human MOB1A wild-type (Drosophila S2R+ cells) (protein, UniProt Q9H8S9 1-216) MSFLFSSRSSKTFKPKKNIPEGSHQYELLKHAEATLGSGNLRQAVMLPEGEDLNEWIAVNTVDFFNQINMLYGTITEFCTEASCPVMSAGPRYEYHWADGTNIKKPIKCSAPKYIDYLMTWVQDQLDDETLFPSKIGVPFPKNFMSVAKTILKRLFRVYAHIYHQHFDSVMQLQEEAHLNTSFKHFIFFVQEFNLIDRRELAPLQELIEKLGSKDR | binds | binds | binds |  | 
MOB1(Q67A) (protein, UniProt Q9H8S9 1-216) MSFLFSSRSSKTFKPKKNIPEGSHQYELLKHAEATLGSGNLRQAVMLPEGEDLNEWIAVNTVDFFNAINMLYGTITEFCTEASCPVMSAGPRYEYHWADGTNIKKPIKCSAPKYIDYLMTWVQDQLDDETLFPSKIGVPFPKNFMSVAKTILKRLFRVYAHIYHQHFDSVMQLQEEAHLNTSFKHFIFFVQEFNLIDRRELAPLQELIEKLGSKDR |  |  |  |  | no binding (tested: ~240 μM MOB1A injected into ~24 μM NDR2)
MOB1(H185A) (protein, UniProt Q9H8S9 1-216) MSFLFSSRSSKTFKPKKNIPEGSHQYELLKHAEATLGSGNLRQAVMLPEGEDLNEWIAVNTVDFFNQINMLYGTITEFCTEASCPVMSAGPRYEYHWADGTNIKKPIKCSAPKYIDYLMTWVQDQLDDETLFPSKIGVPFPKNFMSVAKTILKRLFRVYAHIYHQHFDSVMQLQEEAHLNTSFKAFIFFVQEFNLIDRRELAPLQELIEKLGSKDR |  |  |  |  | no binding (tested: ~240 μM MOB1A injected into ~24 μM NDR2)
